Measurements taken from PubChem BioAssay AID588795 (National Center for Advancing Translational Sciences (NCATS), 2011).
The campaign covered roughly 390,000 compounds. About 1,400 (0.36%) were called active. This list was built around the results that the source calls inconclusive (neither active nor inactive); the mix of calls is not that of the screen. Calls come from the whole dose curve; as a rule, active = well fitted inhibition curve with a large enough effect; inconclusive = small, poorly fitted or top-dose-only effect; inactive = no such curve, though single readings can be large or run the other way. Where the call is inconclusive, the potency comes from a doubtful curve fit. More than one record can exist for a structure, and the calls need not agree.

biological target: Flap endonuclease 1 (Homo sapiens) (UniProt P39748); test: qHTS Assay for the Inhibitors of Human Flap endonuclease 1 (FEN1).; note: nearly all actives have a fitted effect of over 65% in size; conditions: Recombinant FEN1 flap cleavage, fluorescence, 15 min; series mostly up to 114 µM; activity change, negative = inhibition: at the top concentration
Sequence of UniProt P39748 (P39748 whole entry, looked up): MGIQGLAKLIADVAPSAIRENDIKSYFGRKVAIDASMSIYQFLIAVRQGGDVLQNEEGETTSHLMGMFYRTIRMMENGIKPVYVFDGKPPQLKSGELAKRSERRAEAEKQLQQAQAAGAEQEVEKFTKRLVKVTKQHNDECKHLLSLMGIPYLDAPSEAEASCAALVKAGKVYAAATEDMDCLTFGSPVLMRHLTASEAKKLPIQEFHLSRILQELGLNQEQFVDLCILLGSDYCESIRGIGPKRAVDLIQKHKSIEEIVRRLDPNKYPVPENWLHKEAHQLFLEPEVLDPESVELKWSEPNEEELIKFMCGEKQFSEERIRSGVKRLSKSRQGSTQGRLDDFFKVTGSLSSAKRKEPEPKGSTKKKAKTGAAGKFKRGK
How it was run: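 Concentration–response screening of FEN1 (10 nM): 15 min compound preincubation at room temperature, reaction started with 50 nM substrate and read at 0 and 15 min. Corrected, normalized data were fitted by a four-parameter Hill equation.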
% is set by controls: 0 for no effect and ±100 for the full control effect; potency is the fitted concentration of half-maximal effect; tags give direction and shape of the fitted curve.

Row | SMILES | activity change, negative = inhibition | Potency
1 | CCc1ccc(/C=C2/SC(=S)N(CCC(=O)Nc3cccc(C(=O)O)c3)C2=O)cc1 | inactive: -25% | 
2 | COc1ccc(NC(=O)C2(c3cccs3)CCOCC2)cc1Cl | inactive: 4.28% | 
3 | O=C(CSc1nc2sccc2c(=O)[nH]1)N1CCN(c2ccccc2)CC1 | inactive: 0.547% | 
4 | N#Cc1c(NCCCO)nc(NCc2ccccc2)c2c1CCN(Cc1ccccc1)C2 |  | inconclusive: 89.1 µM [inhibitor, partial curve, poor fit]
5 | Nc1nonc1-c1nc2ccccc2n1CC(=O)N/N=C/c1ccc(-c2ccccc2C(=O)O)o1 | inactive: 1.13% | 
6 | CCC(=O)c1ccc(OCC(=O)OCC(=O)c2c(N)n(C)c(=O)n(C)c2=O)cc1 |  | inconclusive: 44.7 µM [inhibitor, partial curve]
7 | Cc1cccn2c(=O)c3cc(C#N)c(=NC(=O)c4ccccc4)n(Cc4ccco4)c3nc12 |  | active: 50.1 µM
8 | Cc1cc(SCC(=O)c2cccc([N+](=O)[O-])c2)nc(=O)[nH]1 |  | inconclusive: 79.4 µM [inhibitor, single point]
9 | CC(C)Cc1nn2c(=O)cc(COC(=O)c3ccc4c(c3)OCO4)nc2s1 | inactive: -0.168% | 
10 | COC(=O)c1ccc(Cn2cc(/C=C\[N+](=O)[O-])c3ccccc32)o1 | inactive: -20.1% | 
11 | O=C(O)c1ccc(N=c2oc3cc(O)ccc3cc2C(=O)NCc2ccccc2)cc1 |  | inconclusive: 25.1 µM [inhibitor, partial curve, poor fit]
12 | Cc1c(C(=O)Nc2ccc(N3CCOCC3)cc2)oc2ccccc12 | inactive: -9.84% | 
13 | Cc1ccc(C)c(NC(=O)CSc2ncc3c(n2)-c2ccc(Cl)cc2N(C)S3(=O)=O)c1 | inactive: 2.74% | 
14 | CCOc1cc2sc(N3CCC(C(=O)Nc4ccc(C)cc4)CC3)nc2cc1Br | inactive: 16.1% | 
15 | COc1ccc(CNC(=O)CN(c2ccccc2OC)S(=O)(=O)c2ccc(C)cc2)cc1 | inactive: 7.67% | 
16 | Cc1ccc(C)c(-c2cc(C(=O)Nc3sc(C)c(C)c3C(N)=O)c3ccccc3n2)c1 |  | inconclusive: 79.4 µM [inhibitor, partial curve, poor fit]
17 | Cc1nc2cc(NS(=O)(=O)c3c(C)c(C)cc(C)c3C)ccc2s1 |  | inconclusive: 56.2 µM [inhibitor, partial curve, poor fit]
18 | CC1CCCCN1CCNC(=O)c1cc2c(-c3ccccc3F)nn(C)c2s1 (stereo not drawn) |  | inconclusive: 39.8 µM [inhibitor, full curve]
19 | O=C(O)c1ccccc1/C=N/NC(=O)c1cc(-c2ccco2)nc2ccccc12 |  | inconclusive: 56.2 µM [inhibitor, partial curve, poor fit]
20 | CC(C)CNc1ncnc2oc(-c3ccco3)c(-c3ccco3)c12 |  | inconclusive: 56.2 µM [inhibitor, partial curve, poor fit]
21 | O=C(N/N=C/c1ccco1)c1ccc(C(=O)N/N=C/c2ccco2)o1 |  | inconclusive: 25.1 µM [inhibitor, partial curve, poor fit]

Row | SMILES | activity change, negative = inhibition | Potency
22 | CC1(NC(=O)CC(c2ccccc2)(c2ccccc2)c2ccccc2)CCN(CCCc2ccccc2)C1=O (stereo not drawn) |  | inconclusive: 89.1 µM [inhibitor, partial curve, poor fit]
23 | CCc1nc2ccccc2n1CCCCOc1ccccc1C |  | inconclusive: 89.1 µM [inhibitor, partial curve, poor fit]
24 | Cc1ccccc1N=C1Nc2ccc(Cl)cc2N[C@]12C[C@H]1CCCC(=O)N3CC[C@@H](C2)[C@@H]13 |  | inconclusive: 50.1 µM [inhibitor, partial curve, poor fit]
25 | O=[N+]([O-])c1cccc(COc2ncnc3cc([N+](=O)[O-])ccc23)c1 |  | inconclusive: 44.7 µM [inhibitor, partial curve, poor fit]
26 | CCCOc1cccc(C(=O)Nc2ccc(-c3nc4ccccc4s3)c(Cl)c2)c1 |  | inconclusive: 89.1 µM [inhibitor, partial curve, poor fit]
27 | COc1cccc(CNC(=O)Cn2cc3c(n2)-c2c(oc(C(=O)N4CCCC4)c2C)CC3)c1 |  | inconclusive: 7.94 µM [inhibitor, partial curve, poor fit]
28 | O=C(c1ccc(Cl)cc1)N1CCN(c2ccc([N+](=O)[O-])c3ncccc23)CC1 |  | inconclusive: 13.4 µM [inhibitor, partial curve, poor fit]
29 | CCCCNc1ncnc2oc(-c3ccco3)c(-c3ccco3)c12 |  | inconclusive: 44.7 µM [inhibitor, partial curve]
30 | O=C(/C=C\c1ccco1)Nc1nc(-c2ccc3ccccc3c2)cs1 | inactive: -7.51% | 
31 | COc1cc(Nc2c3ccccc3nc3ccccc23)cc(OC)c1OC |  | inconclusive: 50.1 µM [inhibitor, partial curve]
32 | CCOC(=O)[C@H](CCc1ccccc1)N[C@@H](C)C(=O)N1CCC[C@H]1C(=O)O |  | inactive
33 | O=C(Nc1nc(-c2ccco2)c(-c2ccco2)s1)c1ccco1 |  | inconclusive: 39.8 µM [inhibitor, partial curve, poor fit]
34 | COc1ccccc1N1CCN(C(=O)C(Cc2ccccc2)NC(=O)C2CCCCC2)CC1 (stereo not drawn) |  | inconclusive: 3.98 µM [inhibitor, partial curve, poor fit]
35 | Clc1ccc2c(ccc[n+]2CCC2CCCCC2)c1 | inactive: 0% | 
36 | Cc1cccc(OCCCOc2cccc3cccnc23)c1C |  | inconclusive: 56.2 µM [inhibitor, partial curve, poor fit]
37 | CS(=O)(=O)c1ccc(N)c(SSc2cc(S(C)(=O)=O)ccc2N)c1 |  | inconclusive: 89.1 µM [inhibitor, single point]
38 | Cc1c(C(=O)O)cccc1-n1c(C)cc(C=O)c1C | inactive: -12.4% | 
39 | CCN1CCCC1CNC(=O)c1cc2c(-c3cccc(OC)c3)nn(C)c2s1 (stereo not drawn) |  | inconclusive: 22.4 µM [inhibitor, partial curve, poor fit]
40 | COc1ccc(OC)c(Nc2nc(N(C)c3ccccc3)nc(N)c2[N+](=O)[O-])c1 |  | inconclusive: 12.6 µM [inhibitor, partial curve, poor fit]
41 | CCOc1ccc(/C=C2/SC(=O)NC2=S)cc1 |  | inconclusive: 70.8 µM [inhibitor, partial curve, poor fit]
42 | COc1cc2c(cc1OC)-c1cc3ccc4c(c3c[n+]1CC2)OCO4 |  | inconclusive: 20 µM [inhibitor, full curve]

Row | SMILES | activity change, negative = inhibition | Potency
43 | COc1cc(C=O)ccc1OCCSc1ccc(Cl)cc1 |  | inconclusive: 89.1 µM [inhibitor, partial curve, poor fit]
44 | COCCCn1c(=O)/c(=C\c2cccc(OC)c2OC)s/c1=C(/C#N)C(=O)Nc1ccc(C(=O)O)cc1 |  | inconclusive: 50.1 µM [inhibitor, partial curve, poor fit]
45 | CN1CCCC1CCNc1ccc2sc3ccccc3c(=O)c2c1 (stereo not drawn) |  | active: 39.8 µM
46 | O=S(=O)(c1ccc(Cl)cc1)c1nnn2c1nc(NC1CCCCC1)c1sccc12 |  | inconclusive: 50.1 µM [inhibitor, partial curve, poor fit]
47 | O=S(=O)(c1ccc2nc(Nc3ccccc3)ccc2c1)N1CCCCC1 |  | inconclusive: 50.1 µM [inhibitor, partial curve, poor fit]
48 | O=C(CSc1nccn1-c1cccc(Cl)c1)Nc1cccc2ccccc12 |  | inconclusive: 89.1 µM [inhibitor, single point]
49 | O=C(O)c1cc(N/N=C/c2c(O)ccc3ccccc23)ccc1Cl |  | inconclusive: 56.2 µM [inhibitor, partial curve, poor fit]
50 | O=C1COc2cc(S(=O)(=O)CCC(=O)NC3CCCCC3)c(Cl)cc2N1 |  | inconclusive: 79.4 µM [inhibitor, partial curve, poor fit]
51 | O=C1C=C(c2ccc3cc[nH]c3c2)C[C@@H](c2ccc3c(c2)OCO3)C1 |  | inconclusive: 11.2 µM [inhibitor, partial curve, poor fit]
52 | Cn1c(=O)c2c(-c3ccc(Br)cc3)n(Cc3ccc(F)cc3)cc2n(C)c1=O |  | inconclusive: 79.4 µM [inhibitor, partial curve]
53 | CCCC(=O)NC(=S)Nc1cccc(Cl)c1N1CCCCC1 |  | inconclusive: 79.4 µM [inhibitor, partial curve, poor fit]
54 | CC(=O)Nc1cccc(-c2cc(C)c3cc4c(cc3n2)OCO4)c1 |  | inconclusive: 35.5 µM [inhibitor, full curve]
55 | O=S(=O)(NCC(Nc1ccc(Cl)cc1)c1ccccc1)c1ccc(Cl)cc1 (stereo not drawn) |  | inconclusive: 39.8 µM [inhibitor, partial curve, poor fit]
56 | CCOC(=O)c1c(C)[nH]c(C)c1S(=O)(=O)N(C)CC(=O)NCc1ccc(Cl)cc1 | inactive: 0.737% | 
57 | Oc1c(CN2CCCCC2)ccc2cccnc12 |  | inconclusive: 56.2 µM [inhibitor, partial curve, poor fit]
58 | CC(=O)Nc1nnc(SCc2cc(=O)c(OC(=O)c3ccccc3)co2)s1 | inactive: 7.25% | 
59 | COc1ccc(-c2nn(-c3ccccc3)cc2/C=N/N=C(N)N)cc1OC |  | inconclusive: 56.2 µM [inhibitor, partial curve]
60 | COC(=O)c1sc(-c2ccccc2)cc1NC(=O)Nc1ccc(F)cc1 |  | active: 89.1 µM
61 | O=C(COc1ccc(/C=N/NC(=O)c2cc3ccccc3o2)cc1Br)Nc1ccccc1 |  | inconclusive: 50.1 µM [inhibitor, partial curve]
62 | COc1ccc(Cc2nn3c(-c4cc(OC)c(OC)c(OC)c4)nnc3s2)cc1 |  | inconclusive: 79.4 µM [inhibitor, partial curve, poor fit]
63 | NC(=O)C1=C(c2ccccc2)c2ccccc2C1=O |  | inconclusive: 89.1 µM [inhibitor, single point]
